Experimental data: patent US20230203098A1, “HUMAN TRANSFERRIN RECEPTOR BINDING PEPTIDE” (priority 2020, published 2023)
Not every detail of the peptide structures is certain; ends, links or a residue may be inferred. Where a SMILES comes first, the peptide text is derived from it. Bridges are numbered along the chain shown (N, C = ends). [ ]: non-standard residue; d: D form. Phe(3-CONH2) = NC(=O)c1cccc(C[C@H](N)C(=O)O)c1; NMePhe(3-Cl) = CN[C@@H](Cc1cccc(Cl)c1)C(=O)O; NMeW = CN[C@@H](Cc1c[nH]c2ccccc12)C(=O)O; NMeY = CN[C@@H](Cc1ccc(O)cc1)C(=O)O; 3Pal = N[C@@H](Cc1cccnc1)C(=O)O

molecular target: transferrin receptor (hTfR) (Homo sapiens, UniProt P02786); assay: Intermolecular interaction evaluation test between transferrin receptor (hTfR) and peptide by surface plasmon resonance (SPR); format: binding; conditions: SPR, hTfR; class symbols A-D; read-out: KD
How it was run: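 Receptor was Ni-captured and EDC/NHS-fixed on an NTA chip; running buffer HEPES pH 8.0 with NaCl, Tween 20, BSA and 1.0% DMSO.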

Chain of transferrin receptor (hTfR) (P02786 whole entry): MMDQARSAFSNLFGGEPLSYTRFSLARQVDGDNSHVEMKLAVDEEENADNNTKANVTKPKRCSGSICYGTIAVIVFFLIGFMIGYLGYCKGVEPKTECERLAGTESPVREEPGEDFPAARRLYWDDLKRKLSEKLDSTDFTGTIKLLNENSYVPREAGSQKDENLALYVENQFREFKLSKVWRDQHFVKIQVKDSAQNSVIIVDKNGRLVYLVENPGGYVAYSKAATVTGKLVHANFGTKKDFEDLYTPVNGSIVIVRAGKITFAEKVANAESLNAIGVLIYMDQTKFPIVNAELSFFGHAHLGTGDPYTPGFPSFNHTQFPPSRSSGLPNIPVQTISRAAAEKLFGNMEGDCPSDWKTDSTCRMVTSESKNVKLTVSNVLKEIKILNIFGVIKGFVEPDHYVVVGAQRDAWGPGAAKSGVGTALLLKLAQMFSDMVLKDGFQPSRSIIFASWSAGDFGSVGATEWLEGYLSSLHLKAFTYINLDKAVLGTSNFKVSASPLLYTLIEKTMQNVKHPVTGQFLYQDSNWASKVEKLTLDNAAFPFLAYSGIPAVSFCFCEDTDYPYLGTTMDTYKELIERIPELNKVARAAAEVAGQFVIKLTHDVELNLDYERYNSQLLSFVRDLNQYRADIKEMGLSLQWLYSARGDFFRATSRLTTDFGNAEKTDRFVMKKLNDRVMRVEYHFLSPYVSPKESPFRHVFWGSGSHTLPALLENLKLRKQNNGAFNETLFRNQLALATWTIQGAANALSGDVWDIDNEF

Kd, 0.001 to 0.1 µM:
CC[C@H](C)[C@@H]1NC(=O)[C@H](Cc2ccc(OC)cc2)NC(=O)[C@H](Cc2ccc(O)cc2)NC(=O)[C@H](CC(N)=O)NC(=O)[C@H](Cc2cn(CC(N)=O)c3ccccc23)NC(=O)[C@H](C(C)C)NC(=O)[C@H](Cc2cccc(Cl)c2)N(C)C(=O)[C@H](C(C)C)NC(=O)[C@H](C)NC(=O)CSC[C@@H](C(N)=O)NC(=O)[C@H](Cc2ccc(O)cc2)N(C)C(=O)[C@H](Cc2ccccc2)NC(=O)[C@@H](CCCNC(=N)N)NC(=O)[C@H](CCCNC(=N)N)NC(=O)[C@H]([C@@H](C)CC)NC1=O [compound 453]
CC[C@H](C)[C@@H]1NC(=O)[C@H](Cc2cccnc2)NC(=O)[C@H](Cc2ccc(O)cc2)NC(=O)[C@H](CC(N)=O)NC(=O)[C@H](Cc2c[nH]c3ccccc23)N(C)C(=O)[C@H](C(C)C)NC(=O)[C@H](Cc2cccc(Cl)c2)N(C)C(=O)[C@H](C(C)C)NC(=O)[C@H](C)NC(=O)CSC[C@@H](C(N)=O)NC(=O)[C@H](Cc2ccc(O)cc2)N(C)C(=O)[C@H](Cc2ccccc2)NC(=O)[C@@H](CCCNC(=N)N)NC(=O)[C@H](CCCNC(=N)N)NC(=O)[C@H]([C@@H](C)CC)NC1=O [compound 454] ({CH2CO}-AV[NMePhe(3-Cl)]V[NMeW]NY[3Pal]IIR[dR]F[NMeY]C-NH2; thioether N-15)
CC[C@H](C)[C@@H]1NC(=O)[C@H](Cc2cccc(C(N)=O)c2)NC(=O)[C@H](Cc2ccc(O)cc2)NC(=O)[C@H](CC(N)=O)NC(=O)[C@H](Cc2c[nH]c3ccccc23)N(C)C(=O)[C@H](C(C)C)NC(=O)[C@H](Cc2cccc(Cl)c2)N(C)C(=O)[C@H](C(C)C)NC(=O)[C@H](C)NC(=O)CSC[C@@H](C(N)=O)NC(=O)[C@H](Cc2ccc(O)cc2)N(C)C(=O)[C@H](Cc2ccccc2)NC(=O)[C@@H](CCCNC(=N)N)NC(=O)[C@H](CCCNC(=N)N)NC(=O)[C@H]([C@@H](C)CC)NC1=O [compound 457] ({CH2CO}-AV[NMePhe(3-Cl)]V[NMeW]NY[Phe(3-CONH2)]IIR[dR]F[NMeY]C-NH2; thioether N-15)
CC[C@H](C)[C@@H]1NC(=O)[C@H](Cc2ccc(OC)cc2)NC(=O)[C@H](Cc2ccc(O)cc2)NC(=O)[C@H](CC(N)=O)NC(=O)[C@H](Cc2c[nH]c3ccccc23)N(C)C(=O)[C@H](C(C)C)NC(=O)[C@H](Cc2cccc(Cl)c2)N(C)C(=O)[C@H](C(C)C)NC(=O)[C@H](C)NC(=O)CSC[C@@H](C(N)=O)NC(=O)[C@H](Cc2ccc(O)cc2)N(C)C(=O)[C@H](Cc2ccncc2)NC(=O)[C@@H](CCCNC(=N)N)NC(=O)[C@H](CCCNC(=N)N)NC(=O)[C@H]([C@@H](C)CC)NC1=O [compound 459]
CC[C@H](C)[C@@H]1NC(=O)[C@H](Cc2ccc(OC)cc2)NC(=O)[C@H](Cc2ccc(O)cc2)NC(=O)[C@H](CC(N)=O)NC(=O)[C@H](Cc2c[nH]c3ccccc23)N(C)C(=O)[C@H](C(C)C)NC(=O)[C@H](Cc2cccc(Cl)c2)N(C)C(=O)[C@H](C(C)C)NC(=O)[C@H](C)NC(=O)CSC[C@@H](C(N)=O)NC(=O)[C@H](Cc2ccc(O)cc2)N(C)C(=O)[C@H](Cc2cccc(C(N)=O)c2)NC(=O)[C@@H](CCCNC(=N)N)NC(=O)[C@H](CCCNC(=N)N)NC(=O)[C@H]([C@@H](C)CC)NC1=O [compound 462]
CC[C@H](C)[C@@H]1NC(=O)[C@H](Cc2ccc(OC)cc2)NC(=O)[C@H](Cc2ccc(O)cc2)NC(=O)[C@H](CC(N)=O)NC(=O)[C@H](Cc2c[nH]c3cccc(OC)c23)NC(=O)[C@H](C(C)C)NC(=O)[C@H](Cc2cccc(Cl)c2)N(C)C(=O)[C@H](C(C)C)NC(=O)[C@H](C)NC(=O)CSC[C@@H](C(N)=O)NC(=O)[C@H](Cc2ccc(O)cc2)N(C)C(=O)[C@H](Cc2ccccc2)NC(=O)[C@@H](CCCNC(=N)N)NC(=O)[C@H](CCCNC(=N)N)NC(=O)[C@H]([C@@H](C)CC)NC1=O [compound 463]
